# The campaign covered roughly 360,000 compounds. About 7,500 (2.1%) were called active. Inconclusive means that the source gave no clear call. Such entries were picked first, then a sample of the others. The call rests on the fitted dose curve; in most records, active means well fitted cell-killing curve with a large enough effect; inconclusive means small, poorly fitted or top-dose-only effect, or effect the other way, or another doubt; inactive means no such curve, though single readings can be large or run the other way. Potencies of inconclusive entries are left out as doubtful fits.
# Assay: qHTS for induction of synthetic lethality in tumor cells producing 2HG: qHTS for the HT-1080-IDH1KD cell line;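 on activity, negative = toxicity: 0% = DMSO wells and -100% = cell-free medium wells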
# Conditions: HT-1080 IDH1 knockdown viability, ATP luminescence, 48 h; activity, negative = toxicity: at 46.1 µM (top of the series) unless noted
# Method in brief: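 Luminescent ATP read-out (CellTiter-Glo, 10 min at room temperature) after 48 h compound exposure at 37 °C gave viability of IDH1-knockdown HT-1080 cells. Activity was normalised to DMSO and cell-free wells, then fitted as concentration-response curves.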
# Potency means the concentration at half of the fitted maximal effect; tags describe the fitted curve by direction and shape.
Compound,"activity, negative = toxicity",Potency
COc1ccc(C(=O)n2nc(-c3ccccc3)nc2SC)cc1,inconclusive: -3.59% [cytotoxic],–
CCOc1ccc(C(C)=O)cc1COC(=O)c1ccccc1C(=O)N(C)Cc1ccccc1,inactive: 1.77%,–
O=C1c2ccccc2NC(c2ccc(-c3ccc(Br)cc3)o2)N1O (stereo unspecified),–,active: 11.2 µM
CCn1c(SCC(=O)Nc2cccc(NC(C)=O)c2)nc2c([nH]c3ccccc32)c1=O,–,"inconclusive [cytotoxic, single point]"
O=C(NCCCCc1ccccc1)Nc1cccc(F)c1,–,"inconclusive [cytotoxic, single point]"
O=C(CCC(=O)NNC(=O)Cc1ccccc1)NCc1ccccc1,–,"inconclusive [rising, single point]"
O=C(Cn1c(-c2cncs2)nc2ccccc21)NCc1ccccc1,inactive: 4.3%,–
COc1ccccc1NS(=O)(=O)c1cc([N+](=O)[O-])ccc1N/N=C/c1c[nH]c2ccccc12,–,"inconclusive [cytotoxic, single point]"
CCc1ccc(NC(=O)c2ccc(F)c(S(=O)(=O)N(CC)c3ccccc3)c2)cc1,–,"inconclusive [cytotoxic, full curve]"
COc1ccccc1NC(=S)Nc1cccc(F)c1,inactive: 5.92%,–
O=C1CC(c2ccco2)CC2=C1C1c3ccccc3C(=O)N1c1ccccc1N2 (stereo unspecified),–,"inconclusive [cytotoxic, partial curve]"
COc1ccccc1NC(=O)CC(=O)c1cccc([N+](=O)[O-])c1,inactive: 6.29%,–
O=C(Cn1cc(C(F)(F)F)ccc1=O)NCCc1ccc(Cl)cc1Cl,inconclusive: 30.3%,–
O=CNc1cc(-c2ccc(C(=O)NC3CC3)cc2)cn2c(-c3ccc(F)c(Cl)c3)cnc12,–,"inconclusive [cytotoxic, single point]"
O=C(NCCCN1CCCC1)c1ccc2c(Cl)c3c(nc2c1)CCCC3,–,active: 23.1 µM
COCCCNC(=O)Cn1c(=O)n(Cc2ccc(C(=O)NCCc3ccc(OC)c(OC)c3)cc2)c(=O)c2ccccc21,inactive: 0%,–
O=C(Cc1c(F)cccc1Cl)Nc1cccnc1,–,"inconclusive [rising, single point]"
COc1ccccc1N1CCN(S(=O)(=O)c2ccc3c4c(cccc24)C(=O)N3)CC1,–,"inconclusive [cytotoxic, single point]"
COc1ccc(C=C(C(C)=O)C(=O)c2ccccc2)cc1,–,active: 23.1 µM
Cc1ccc(C(=O)NCc2ccc(N3CCN(C(=O)OC(C)(C)C)CC3)cc2)cc1,inactive: 9.53%,–
COc1ccccc1N1CCN(CC(O)COCCOc2ccc(Br)cc2)CC1 (stereo unspecified),inconclusive: -30.4% [cytotoxic],–
CCOc1ccccc1NC(=O)CSc1nnc(CCC(=O)Nc2ccccc2F)n1C,inactive: 11.8%,–
COc1cc([C@@H]2c3cc4c(cc3[C@@H](O)[C@H]3COC(=O)[C@H]23)OCO4)cc(OC)c1O[Si](C)(C)C(C)(C)C,–,"inconclusive [cytotoxic, single point]"
Fc1ccc(C2=NNC(=NCc3ccccc3)SC2)cc1F,inactive: -29.1%,–

Compound,"activity, negative = toxicity",Potency
CC1=CC(C)(C)NC(=S)N1c1ccccc1,–,active: 11.2 µM
Cc1oc(-c2ccc(Cl)cc2)nc1CN1CCCC(C(=O)NCCCN2CCOCC2)C1 (stereo unspecified),–,"inconclusive [cytotoxic, partial curve]"
CC(C)Cn1c(C(C)C)nc([N+](=O)[O-])c1Sc1ccc(Cl)cn1,inactive: -13.3%,–
COc1ccc(CN(C(=O)c2ccco2)c2ccc(C)c(C)c2)cc1,–,active: 20.6 µM
Cc1cc(C)cc(-n2ncc3c2CCCC3NC(=O)c2ccccc2N2CCOCC2)c1 (stereo unspecified),–,active: 16.4 µM
CCCCn1nc(C(=O)NCC(c2cccs2)N2CCOCC2)c2ccccc2c1=O (stereo unspecified),inactive: -0.969%,–
CCc1ccccc1NC(=O)c1cccc(NC(=O)/C=C/c2ccco2)c1,inactive: -7.88%,–
CC(C)n1c(=O)n(CC(=O)NCC2CCCO2)c(=O)c2c3c(sc21)COC(C)(C)C3 (stereo unspecified),inactive: 0.847%,–
CC1(C)Cc2c(sc(NC(=O)c3ccc(S(=O)(=O)N4CCCCCC4)cc3)c2C(N)=O)C(C)(C)N1,–,"inconclusive [cytotoxic, partial curve]"
CCOC(=O)Cc1c(-c2cccc(Cl)c2)nc2c3ccccc3ccn12,–,"inconclusive [cytotoxic, single point]"
c1ccc(-n2nnnc2-c2cccc3ccccc23)cc1,–,active: 8.2 µM
COc1cc(CN2CCCC(C(=O)c3ccc(C(C)(C)C)cc3)C2)cc(OC)c1O (stereo unspecified),–,"inconclusive [cytotoxic, single point]"
O=C(Nc1ccc2oc(-c3ccccc3)nc2c1)c1ccc2c(c1)OCCO2,–,"inconclusive [cytotoxic, single point]"
CC(=O)c1ccc(OCC(=O)c2cc(C)n(-c3ccc4c(c3)OCO4)c2C)cc1,–,"inconclusive [cytotoxic, single point]"
c1ccc(COc2cccc(-c3cc4nc(NCCc5ccncc5)ccn4n3)c2)cc1,–,active: 23.1 µM
Fc1ccc(-n2cc(CNCCc3cccnc3)c(-c3ccccc3Cl)n2)cc1,–,"inconclusive [cytotoxic, single point]"
O=C(O)c1ccc2c(c1)ncn2C1CCCCC1,–,"inconclusive [cytotoxic, single point]"
COc1ccc(Cn2c(C)nc3c(c2=O)c2nc4ccccc4nc2n3Cc2ccco2)cc1,–,"inconclusive [cytotoxic, full curve]"
CC(=O)c1sc(NC(=O)COc2ccc(C(C)C)c(C)c2)nc1C,–,"inconclusive [cytotoxic, full curve, poor fit]"
COc1ccc(CN(C)C(=O)CNC(=O)c2sc3ccccc3c2Cl)c(OC)c1OC,inactive: 4.2%,–
CCOc1ccc(CN2CCSCC2)cc1,–,"inconclusive [rising, partial curve]"
Cc1ccc(SCc2cc(=O)[nH]c(Nc3nc(C)c4cccc(C)c4n3)n2)cc1,inactive: -1.07%,–
Cc1cccc(C(C)C)c1NC(=O)COC(=O)CCC(=O)N(CC(C)C)c1c(N)n(CC(C)C)c(=O)[nH]c1=O,inactive: 15.6%,–
COc1ccc(N=C2SCC(c3ccc([N+](=O)[O-])cc3)=NN2CCO)cc1,–,"inconclusive [cytotoxic, single point]"

Compound,"activity, negative = toxicity",Potency
Cc1cccc(Nc2nc(N)nc(CCl)n2)c1C,–,active: 1.84 µM
COc1ccc(CC(=O)N2CCC(Nc3nc4ccccc4n3Cc3ccc(F)cc3)CC2)cc1,–,"inconclusive [cytotoxic, partial curve, poor fit]"
Cc1ncc(CN2CCCC(C(=O)Nc3ccc(-c4cccc(F)c4)cc3)C2)cn1 (stereo unspecified),–,"inconclusive [cytotoxic, single point]"
Cc1cc(O)cc(O)c1C=NCc1ccco1,–,"inconclusive [cytotoxic, single point]"
CCOC(=O)c1[nH]c(C)c(C(=O)OCc2ccccc2F)c1C,–,active: 9.2 µM
O=C(NCC1CCCO1)c1cc(-c2ccccc2)on1 (stereo unspecified),–,"inconclusive [cytotoxic, single point]"
COc1cc(C(=O)NNC(=O)C2CC=CCC2C(=O)O)cc(OC)c1OC (stereo unspecified),–,"inconclusive [cytotoxic, single point]"
CCOc1ccc(Nc2cc(C)nc3ccc(C)cc23)cc1,–,"inconclusive [cytotoxic, single point]"
COc1ccc(NC(=O)Nc2nnc(Cc3ccccc3)s2)cc1,–,"inconclusive [cytotoxic, single point]"
COc1cccc(C(C)(O)c2nc(-c3ccc(Cl)cc3)cs2)c1 (stereo unspecified),–,"inconclusive [cytotoxic, single point]"
COc1ccc(-c2cnc3c(NC(C)=O)cc(-c4ccccc4CN(C)C)cn23)cc1OC,–,"inconclusive [cytotoxic, single point]"
CCC1CSC(Nc2ccc(C(=O)/C=C/c3cccc(C)c3)cc2)=N1 (stereo unspecified),–,"inconclusive [cytotoxic, single point]"
CC(=O)N1CCc2cc(S(=O)(=O)NCCC(=O)NCCc3ccc(C)cc3)ccc21,–,"inconclusive [cytotoxic, single point]"
CCOc1[nH]n(-c2ccc(Cl)cc2)c(=O)c1C=Nc1ccc(O)cc1,–,"inconclusive [cytotoxic, partial curve]"
O=C(CCl)Nc1ccc(N=Nc2ccccc2)cc1,inactive: -3.21%,–
CC(C)(C)CC(C)(C)NC(=S)Nc1ccc2nc(-c3ccccn3)c(-c3ccccn3)nc2c1,–,"inconclusive [cytotoxic, single point]"
Cc1ccc(C2c3c(-c4ccccc4O)n[nH]c3C(=O)N2Cc2ccncc2)cc1 (stereo unspecified),–,"inconclusive [cytotoxic, single point]"
NC(CCc1ccccc1)c1csc(Nc2nncc3ccccc23)n1 (stereo unspecified),–,"inconclusive [cytotoxic, single point]"
O=C(NNc1ccc(C2CCCCC2)cc1)C(O)(c1ccccc1)c1cccs1 (stereo unspecified),–,"inconclusive [cytotoxic, single point]"
CCOc1cc(/C=C2\CCn3c2nc2cc(Cl)ccc2c3=O)ccc1O,inactive: -10.7%,–
CCCC(=O)Nc1ccc(C2C(=O)c3ccccc3C2=O)cc1,inactive: -1.29%,–
COc1ccc(N2CCN(CC(O)c3c[nH]c4ccc(OC)cc34)CC2C)cc1 (stereo unspecified),–,"inconclusive [cytotoxic, single point]"
COc1ccc(/C=N/NC(=O)c2ccccc2)cc1OS(=O)(=O)c1ccccc1,–,active: 20.6 µM

# — PubChem BioAssay AID686971 (National Center for Advancing Translational Sciences (NCATS), 2013)
